Laboratory results as given in PubChem BioAssay AID1460 (National Center for Advancing Translational Sciences (NCATS), 2008).
Where “and” joins values, the source holds several entries; their conditions need not be identical. Identical values can stand only once. Screen size: about 270,000 compounds; about 5,800 (2.1%) were called active. Inconclusive results, whose numbers are uncertain, are shown with a selection of clear calls. The call rests on the fitted dose curve; in most records, active means well fitted inhibition curve with a large enough effect; inconclusive means small, poorly fitted or top-dose-only effect; inactive means flat fitted curve, though single readings scatter. A potency beside an inconclusive call is a rough fit, not a confirmed value.

Each molecule was assayed against Microtubule-associated protein tau (Homo sapiens) (UniProt P10636) (assay: qHTS for Inhibitors of Tau Fibril Formation, Thioflavin T Binding). Settings: recombinant tau K18 P301L (four-repeat tau fragment), heparin-induced fibrillization, ThT fluorescence; series mostly up to 57.4 µM.
In short: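 Tau K18 P301L fragment (15 uM unlabeled plus 0.24 uM Alexa 594-labeled) in 100 mM sodium acetate pH 7 with compound, fibrillization induced by 20 uM heparin for 6 hr at 37 C. Thioflavin T (30 uM) added, fluorescence read after 1 hr (ex 450, em 510 nm).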
Further: nearly all actives have a fitted effect of over 55% in size.
Potency means the concentration at half of the fitted maximal effect; tags describe the fitted curve by direction and shape.

Sequence of UniProt P10636 (P10636 whole entry, looked up, the tested form may be a part): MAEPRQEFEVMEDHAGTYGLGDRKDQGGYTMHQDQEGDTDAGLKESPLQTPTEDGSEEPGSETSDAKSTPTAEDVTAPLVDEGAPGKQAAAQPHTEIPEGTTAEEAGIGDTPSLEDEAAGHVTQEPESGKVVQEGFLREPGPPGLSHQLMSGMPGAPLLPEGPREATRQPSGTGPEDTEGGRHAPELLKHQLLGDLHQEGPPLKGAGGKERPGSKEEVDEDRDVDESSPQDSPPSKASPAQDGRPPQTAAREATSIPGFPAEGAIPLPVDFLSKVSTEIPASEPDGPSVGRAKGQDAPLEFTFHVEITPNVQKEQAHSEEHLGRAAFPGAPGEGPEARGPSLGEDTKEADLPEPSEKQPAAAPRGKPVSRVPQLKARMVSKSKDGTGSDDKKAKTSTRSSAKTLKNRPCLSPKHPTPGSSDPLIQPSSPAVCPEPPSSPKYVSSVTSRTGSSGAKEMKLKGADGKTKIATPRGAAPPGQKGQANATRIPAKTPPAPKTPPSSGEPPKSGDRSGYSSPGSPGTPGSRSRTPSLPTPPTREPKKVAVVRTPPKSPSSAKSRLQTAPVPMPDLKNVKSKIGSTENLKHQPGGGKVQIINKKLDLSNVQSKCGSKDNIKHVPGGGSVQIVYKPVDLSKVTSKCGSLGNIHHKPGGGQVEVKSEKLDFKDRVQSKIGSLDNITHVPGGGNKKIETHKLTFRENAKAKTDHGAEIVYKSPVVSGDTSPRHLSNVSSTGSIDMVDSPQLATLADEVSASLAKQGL

Row | Structure (SMILES) | Potency
1 | COc1ccc(-c2noc(CSc3nnc(-c4ccncc4)n3-c3ccc(OC)cc3)n2)cc1 | inconclusive: 22.4 µM [inhibitor, single point]
2 | Cc1ccc(NC(=O)CSC(N)=O)cc1Cl | inconclusive: 25.1 µM [inhibitor, single point]
3 | CCOC(=O)N1CCN(Cc2cc(Cl)c3cccnc3c2O)CC1 | inconclusive: 14.1 µM [inhibitor, partial curve]
4 | Cc1nc(NC(=O)c2ccccc2)sc1C1(C)CC(c2c(Cl)cccc2Cl)=NO1 (centres undefined) | inconclusive: 1 µM [inhibitor, partial curve, poor fit]
5 | O=C(NC1CC(=O)N(c2ccc(F)cc2)C1)C(c1ccccc1)c1ccccc1 (centres undefined) | inactive
6 | Cn1cnnc1SCC(=O)N1c2ccccc2-c2c(ssc2=S)C1(C)C | inconclusive: 35.5 µM [inhibitor, single point]
7 | COC(=O)c1ccc(NC(=O)c2cc3cc4ccc(OC)c(Cl)c4nc3s2)cc1 | inconclusive: 3.16 µM [inhibitor, full curve]
8 | COc1cccc(N=Nc2c(N)[nH]n3c(=O)c4c(nc23)CCCC4)c1 | active: 1.41 µM
9 | Cc1cccc(NC(=S)Nn2cnnc2)c1C | inactive
10 | COc1ccc(OC)c(-n2c(SCC(=O)Nc3cc(C)on3)nnc2-c2c[nH]c3ccccc23)c1 | inconclusive: 39.8 µM [inhibitor, single point]
11 | O=C(Nc1cccc(-c2nc3ccccc3[nH]2)c1)c1cccc(NC(=O)c2ccco2)c1 | inconclusive: 10 µM [activator, partial curve, poor fit]
12 | COc1ccccc1NS(=O)(=O)c1cccc(NC(=O)NCCCl)c1 | inactive
13 | Cc1cc(N2CCN(c3ccccc3)CC2)n2c(n1)nc1ccccc12 | inconclusive: 22.4 µM [inhibitor, partial curve]
14 | CCOc1ccc(CN2C(=O)c3ccccc3Sc3ccc(C(=O)NC4CCC(C)CC4)cc32)cc1 (centres undefined) | inactive
15 | Cc1ccc(N=Nc2c(N)[nH]n3c(=O)cc(-c4ccccc4)nc23)cc1 | active: 3.16 µM
16 | CC(=O)N1CCC(=NNc2nc3ccccc3[nH]2)CC1 | inconclusive: 12.6 µM [inhibitor, partial curve]
17 | Cc1cccc(Nc2nc(N)nc(-c3oc4ccccc4c3C)n2)c1 | inconclusive: 0.282 µM [inhibitor, full curve, poor fit]
18 | COC(=O)c1ccc(NC(=O)CCOc2ccccc2)cc1 | inconclusive: 2.51 µM [inhibitor, full curve] and inconclusive: 20 µM [inhibitor, partial curve]
19 | Cc1ccc(Cn2c(Cc3ccccc3)nc3ccccc32)cc1 | inconclusive: 44.7 µM [inhibitor, single point]
20 | Cn1c2ccc(F)cc2c2ncn(Cc3ccco3)c(=O)c21 | inactive
21 | O=C(Nc1ccc(N2CCN(C(=O)c3ccco3)CC2)cc1)c1ccccc1F | inconclusive: 5.62 µM [inhibitor, partial curve]
22 | O=C(c1ccc2c3c(cccc13)CC2)C1CCCN(C(=O)c2ccc(=O)[nH]c2)C1 (centres undefined) | inconclusive: 39.8 µM [inhibitor, partial curve]
23 | O=C(O)c1cccc(CSc2nc(-c3ccc(Cl)cc3)cc(C(F)(F)F)n2)c1 | inconclusive: 17.8 µM [inhibitor, single point]

Row | Structure (SMILES) | Potency
24 | COc1cccc(CNC(=O)C2CCCN(c3nnc(-n4c(C)ccc4C)s3)C2)c1 (centres undefined) | inconclusive: 39.8 µM [inhibitor, single point]
25 | COC(=O)c1ccccc1NC(=O)CSc1c2c(nc3ccc(Cl)cc13)CCCC2 | inconclusive: 14.1 µM [inhibitor, partial curve]
26 | O=C(O)CNC(=O)/C=C/c1c(Cl)cccc1Cl | inactive
27 | C=CCn1c(CCC(=O)O)ccc1-c1ccc(OC)cc1 | inconclusive: 17.8 µM [inhibitor, partial curve]
28 | O=C(Nc1nc2ccccc2s1)c1ccccc1 | inactive
29 | Cc1cccc(Cc2c(C)nc3c(C(=O)N4CCN(Cc5ccc6c(c5)OCO6)CC4)cnn3c2C)c1 | inconclusive: 35.5 µM [inhibitor, partial curve, poor fit]
30 | CCCC(=O)Nc1nnc(S(=O)(=O)N(C)c2ccccc2)s1 | active: 2.51 µM
31 | COc1cccc(/C=N/NC(=O)c2[nH]nc3c2CCc2ccccc2-3)c1O | inconclusive: 0.794 µM [inhibitor, full curve]
32 | CCCCCCCCCCCCCCCC[n+]1ccc(/C=N/O)cc1 | inconclusive: 31.6 µM [inhibitor, single point]
33 | C/C(=N\NC(=O)CNc1cccc(C(F)(F)F)c1)c1ccc(Br)cc1 | inactive
34 | COc1ccc(NC(=O)C(=O)NCCc2csc3nc(-c4ccccc4C)nn23)cc1 | inactive
35 | CCOc1ccc(-n2nc3ccc(NC(=O)COc4ccccc4C)cc3n2)cc1 | inconclusive: 1 µM [inhibitor, full curve]
36 | S=c1nc(-c2ccc(Br)cc2)oc2c1CCCC2 | inconclusive: 12.6 µM [inhibitor, partial curve, poor fit]
37 | Cc1ccc(NC(=O)Nc2ccc([N+](=O)[O-])cc2)nc1 | inconclusive: 1.78 µM [inhibitor, full curve]
38 | CCOc1ccc(CNC(=O)CN2C(=O)CSc3c2c(C)nn3-c2ccccc2)cc1 | inactive
39 | Cc1ccc(CSc2nc3cccnc3n2Cc2nc(-c3ccccc3F)oc2C)cc1 | inconclusive: 39.8 µM [inhibitor, single point]
40 | C=C(c1ccc(O)cc1)c1ccc(O)cc1 | inconclusive: 25.1 µM [inhibitor, single point]
41 | CCOC(=O)/C(O)=C(\C#N)c1nc2ccccc2[nH]1 | inconclusive: 5.01 µM [inhibitor, partial curve]
42 | CC(=O)c1c(C)[nH]c(C(=O)Nc2ccccc2N2CCOCC2)c1C | inactive
43 | O=C(NC(=S)Nc1ccc(N2CCOCC2)cc1)c1ccccc1 | inconclusive: 14.1 µM [inhibitor, partial curve]
44 | CCC1CCCCN1C(=O)CSc1nc(-c2ccc(OC)cc2)cc(C(F)(F)F)n1 (centres undefined) | inconclusive: 17.8 µM [inhibitor, single point]
45 | Cc1ccc(COn2c(-c3ccc(Cl)cc3)nc3ccc([N+](=O)[O-])cc32)cc1 | inconclusive: 8.91 µM [inhibitor, full curve]
46 | CCn1cnc2cc(NCc3ccc(N(C)C)cc3)ccc21 | inconclusive: 8.91 µM [inhibitor, partial curve] and inconclusive: 12.6 µM [inhibitor, partial curve]

Row | Structure (SMILES) | Potency
47 | COc1cc(-c2nc(-c3ccccc3)c(-c3ccc(F)cc3)[nH]2)cc2c1OCO2 | inactive
48 | COCCNC(=S)N/N=C1\CC(C)CC(C)(C)C1 (centres undefined) | inactive
49 | Cc1cccc(S(=O)(=O)c2c(N)n(-c3ccccc3)c3nc4ccccc4nc23)c1 | inconclusive: 39.8 µM [inhibitor, single point]
50 | CCC(C(=O)OCC(=O)Nc1cc(Cl)cc(Cl)c1)c1ccccc1 (centres undefined) | inactive
51 | Cc1ccc(Nc2nc(-c3sc(NC(=O)c4ccc([N+](=O)[O-])cc4)nc3C)cs2)cc1 | active: 3.16 µM
52 | O=c1c(O)c(-c2cccs2)oc2ccccc12 | inactive
53 | O=C(NC(=S)Nc1ccc(N2CCOCC2)c(Cl)c1)c1cncc(Br)c1 | inconclusive: 15.8 µM [inhibitor, partial curve]
54 | CCNc1nc(NC(C)C)nc(SCCOc2ccc(C)cc2)n1 | inconclusive: 28.2 µM [inhibitor, single point]
55 | Clc1cccc(/C(Cc2nc3ccccc3[nH]2)=N\Nc2ccccc2)c1 | inconclusive: 12.6 µM [inhibitor, partial curve]
56 | Cc1ccc(C(C)C)c(OCc2ccc(C(=O)Nc3ccc(S(N)(=O)=O)cc3C)o2)c1 | inconclusive: 28.2 µM [inhibitor, single point]
57 | Cn1c(Cc2cccc3ccccc23)nnc1SCC(=O)N1CCN(c2cccc(Cl)c2)CC1 | inconclusive: 20 µM [inhibitor, partial curve]
58 | COc1cccc(/C=N/NC(=S)NC2CC3CCC2C3)c1OC (centres undefined) | inactive
59 | Cc1cccc(NCc2ccc(O)c3ncccc23)c1C | inconclusive: 31.6 µM [inhibitor, partial curve]
60 | Cc1cc(C)cc(NC(=O)CN2CCN(CCN=CC3=C(O)CC(c4ccc(Cl)cc4)CC3=O)CC2)c1 (centres undefined) | inconclusive: 11.2 µM [inhibitor, partial curve]
61 | CC(C)NC(=O)Cn1c(=O)nc(-c2ccccc2)c2ccccc21 | inactive
62 | CCOC(=O)c1c(-c2ccc(OC)cc2)csc1/N=C/C1C(=O)CCCC1=O | inconclusive: 17.8 µM [inhibitor, partial curve]
63 | Nc1nnc(SC2CC(=O)N(c3ccccc3)C2=O)s1 (centres undefined) | inconclusive: 17.8 µM [inhibitor, partial curve]
64 | CCN(CC)c1ccc(/C=N/NC(=O)OC)c(O)c1 | inconclusive: 12.6 µM [inhibitor, partial curve]
65 | CCn1cc(C(=O)NCc2ccco2)c(=O)c2cc(S(=O)(=O)N3CCC(C)CC3)ccc21 | inactive
66 | c1ccc2oc(-c3csc(NCC4CCCO4)n3)cc2c1 (centres undefined) | inconclusive: 15.8 µM [inhibitor, partial curve]
67 | O=C1c2ccccc2S(=O)(=O)N1CC(O)COc1ccc(Br)cc1 (centres undefined) | inactive
68 | O=C(CSc1nc2ccccc2o1)N/N=C/c1ccc(O)c(O)c1 | inconclusive: 12.6 µM [inhibitor, partial curve]
69 | Cc1ccc(S(=O)(=O)N2CCC(c3nnc(-c4cccc(C)c4)o3)CC2)cc1 | inconclusive: 12.6 µM [inhibitor, partial curve]
